Measurements reported in ChEMBL document CHEMBL4888484, “Replenishing the malaria drug discovery pipeline: Screening and hit evaluation of the MMV Hit Generation Library 1 (HGL1) against asexual blood stage Plasmodium falciparum ,using a nano luciferase reporter read-out” (2022).
In all, about 150,000 compounds went through this assay and about 540 (0.36%) showed an effect of 50% or more. The list shows a part of the results.

test system: Plasmodium falciparum; assay: Primary screen in NF54 nanoGlo assay, in single point, at 2uM, 72h; a lower Z score goes with more inhibition; assay type: functional, Erythrocyte; conditions: timepoint 72 hour

Row | SMILES | % Inhibition [%] | Z score
1 | Cc1nn(C)c(Cl)c1C(=O)N1CCc2sccc2C1 | -11 | 1.68
2 | CCn1nccc1CNC(=O)N1CCC[C@H](n2ccc(C(=O)NC)n2)C1 | -3 | 0.59
3 | O=C(Nc1ccc(N2CCOCC2)cc1)[C@@H](c1ccccc1)C1CCCCC1 | -36 | 4.21
4 | CC1(O)CN(C(=O)C(C)(C)CC(F)F)C1 | -9 | 1.45
5 | CCOC1CC(CC(=O)Nc2cc(Cl)cc3cn[nH]c23)C1 (configuration not stated) | -5 | 0.98
6 | COCCC(=O)NCCc1noc(C)n1 | 2 | -0.21
7 | O=C(c1ccnnc1)N1CC2CCC2(Nc2ncc(C(F)(F)F)cc2Cl)C1 (configuration not stated) | 28 | -3.58
8 | Cc1ccc(CNC(=O)c2cnn3c(-c4ccc(C)c(C)c4)ccnc23)cc1C | -5 | 0.73
9 | NS(=O)(=O)CC1CCN(C(=O)NCC2(C3CC3)CCC2)CC1 | -15 | 2.69
10 | CN(CCCCS(C)(=O)=O)Cc1ccc(Cl)cc1Cl | 5 | -0.9
11 | Cc1nnc(CN(CCNS(=O)(=O)c2ccccc2)C(C)(C)C)o1 | -3 | 0.45
12 | CCn1c(-c2cccc3cnccc23)nc2c1c(=O)[nH]c(=O)n2CC | -2 | 0.18
13 | CNc1nc2c(c(C(=O)N3CCCC3)n1)CN(c1ncnc3ccsc13)CC2 | -16 | 2.11
14 | CCNc1ncc(C(=O)N(Cc2ccccc2)[C@H]2CCS(=O)(=O)C2)cn1 | 4 | -0.63
15 | Cc1ccccc1-n1nccc1[C@H]1OCC[C@@H]1C(=O)O | 29 | -3.33
16 | CCCCNC(=O)N1C(C)CC2CCCCC21 (configuration not stated) | -7 | 1.04
17 | COc1cc(NC(=O)[C@@H](c2cccnc2)C(C)C)cc(OC)c1 | -32 | 3.75
18 | Cc1oc(C(C)C)nc1C(=O)N1CCC[C@@](O)(CO)C1 | -6 | 0.9
19 | CC1(C)CN(S(=O)(=O)c2ccc(C#N)c(F)c2)C1C1CCCO1 (configuration not stated) | -6 | 0.73

Row | SMILES | % Inhibition [%] | Z score
20 | Cc1ccc(N2CN(CC(=O)Nc3cccc(F)c3)S(=O)(=O)c3cccnc32)cc1 | -19 | 2.01
21 | Cc1cc(C)nc(CNc2nc3c(s2)c(C)nn3C)n1 | -13 | 1.52
22 | COc1ccc2[nH]c3c(c2c1)CCN1C(=O)N(c2ccccc2C(=O)NC(C)CCc2ccccc2)C(=O)[C@]31C (some centres not stated) | 6 | -0.77
23 | CN(C)C(=NCCC1CCCC1)N(C)C | -7 | 0.94
24 | O=C(Nc1cccc2ccccc12)N1CC[S+]([O-])CC1 | -7 | 1.3
25 | C[C@@H]1CN(C(=O)c2cccn2C)CCN1C(=O)OC(C)(C)C | -2 | 0.31
26 | C[C@@H](Cc1cccs1)C(=O)NCc1ccc(S(N)(=O)=O)cc1 | -1 | 0.2
27 | Cc1nn(C)c(C)c1C(=O)N1CC[C@H](c2ccc3c(c2)CCO3)C1 | -7 | 0.86
28 | Cc1cnn(CC2CCCN2C(C)c2nc(C3CC3)no2)c1 (configuration not stated) | -1 | 0.14
29 | CN(Cc1cc(C#N)ccn1)Cc1cc(-c2ccccc2)n[nH]1 | -19 | 1.93
30 | CCc1nnc(NC(=O)[C@]2(C(C)C)CNC(=O)C2)s1 | 19 | -2.21
31 | CCOC(=O)CN1CC[C@@H](O)C[C@H]1C(=O)OC | -2 | 0.22
32 | CC[C@H]1CCCCN1CC(=O)N(C)Cc1cnccn1 | -4 | 0.38
33 | CCCc1nc(CN2CCS(=O)(=O)CC2)cs1 | 9 | -0.99
34 | COCCN1C[C@@H](C(=O)N2CCC(Oc3cccc(Cl)c3)CC2)CCC1=O | -9 | 0.95
35 | Cc1cc(NC(=O)CS(=O)(=O)C(C)C)cc(C)c1Br | 3 | -0.35
36 | O=C(NCc1ccccc1Cl)[C@@H]1C[C@H](n2cnnn2)CN1C1CCCC1 | -6 | 0.74
37 | COC(=O)[C@H]1CCc2nnc(-c3cccc(S(C)(=O)=O)c3)n2C1 | 5 | -0.7
38 | Cc1cc(C)c(CN2CCOC3(CCCC3)C2)cc1CN1CCN(C)CC1 | -6 | 0.87

Row | SMILES | % Inhibition [%] | Z score
39 | CN(C)c1[nH]cnc2c3cc(F)ccc3nc1-2 | -28 | 3.31
40 | COc1cccc(Cc2nc(-c3nnn(-c4ccc(F)cc4)c3C)no2)c1 | -10 | 1.87
41 | O=C(CCN[C@H](c1ccccc1)C1CCC1)N1CCOCC1 | -10 | 1.08
42 | Cc1nc(O)nc(C)c1CCc1nc(C2CCCC2)nn1-c1ccccc1 | -15 | 1.64
43 | COc1ccc(-c2cc(C(=O)N[C@H]3CCCc4ccccc43)c3ccccc3n2)cc1OC | -13 | 2.09
44 | O=C(c1ccno1)N1CC(c2nc(-c3ccsc3)no2)C1 | -8 | 0.93
45 | CC(C)NC(=O)NCCn1nnc2cc(S(=O)(=O)NC(C)C)ccc21 | -16 | 1.64
46 | CC(C)N(C(=O)CN1CCC[C@H]1c1ccc2c(c1)OCCCO2)c1ccccc1 | -38 | 4.48
47 | CCn1nc(-c2ccccn2)nc1CCC(N)=O | -5 | 0.99
48 | CN(CCn1cccn1)Cc1cn(C(C)(C)C)nn1 | -12 | 2
49 | COc1ccccc1N1CCN(CC(=O)O)C1=O | 26 | -3.28
50 | Cn1c(CNCC2CC2)nc2ccccc21 | -17 | 1.7
51 | O=C(NC1CCS(=O)(=O)CC1)c1ccccc1-c1ccccc1 | -15 | 1.24
52 | COCCN(CC(=O)N(C)C)C(=O)c1cc(Cl)cc(Cl)c1 | -8 | 0.83
53 | O=C(NCCN1Cc2cc(Cl)ccc2OCC1=O)c1cccc(OC(F)(F)F)c1 | -13 | 2.21
54 | Cc1cc(CNC(=O)N2CCC(C)CC2)no1 | -3 | 0.55
55 | CC(C)c1nccc(CN(C)CCn2cccn2)n1 | -10 | 1.1
56 | O=C(Cc1ccccc1)Nc1ccc(Cc2nnc3ccccn23)cc1 | -23 | 2.15
